In article PMC11602552 (The Journal of Experimental Medicine, 2024):

Target: wild type eIF6 (eIF6^WT), purified (UniProt O55135)
Assay: SPR

Kd: ~9.72 µM
B1: G3BP1, purified (natural protein)
chain: not shown
